# From PubChem BioAssay AID743255 (National Center for Advancing Translational Sciences (NCATS), 2014)
# Hit rate of the full screen: of about 390,000 compounds, about 910 (0.23%) were called active. Roughly 5% stayed inconclusive and do not appear here. Calls follow the shape of the dose curve; as a rule, active = well fitted inhibition curve with a large enough effect; inconclusive = small, poorly fitted or top-dose-only effect; inactive = no such curve, though single readings can be large or run the other way. This is a selection; strong and weak results do not stand in their true shares.
# Biological target: Ubiquitin carboxyl-terminal hydrolase 1 (Homo sapiens) (UniProt O94782)
# UniProt O94782, sequence (O94782 whole entry, looked up): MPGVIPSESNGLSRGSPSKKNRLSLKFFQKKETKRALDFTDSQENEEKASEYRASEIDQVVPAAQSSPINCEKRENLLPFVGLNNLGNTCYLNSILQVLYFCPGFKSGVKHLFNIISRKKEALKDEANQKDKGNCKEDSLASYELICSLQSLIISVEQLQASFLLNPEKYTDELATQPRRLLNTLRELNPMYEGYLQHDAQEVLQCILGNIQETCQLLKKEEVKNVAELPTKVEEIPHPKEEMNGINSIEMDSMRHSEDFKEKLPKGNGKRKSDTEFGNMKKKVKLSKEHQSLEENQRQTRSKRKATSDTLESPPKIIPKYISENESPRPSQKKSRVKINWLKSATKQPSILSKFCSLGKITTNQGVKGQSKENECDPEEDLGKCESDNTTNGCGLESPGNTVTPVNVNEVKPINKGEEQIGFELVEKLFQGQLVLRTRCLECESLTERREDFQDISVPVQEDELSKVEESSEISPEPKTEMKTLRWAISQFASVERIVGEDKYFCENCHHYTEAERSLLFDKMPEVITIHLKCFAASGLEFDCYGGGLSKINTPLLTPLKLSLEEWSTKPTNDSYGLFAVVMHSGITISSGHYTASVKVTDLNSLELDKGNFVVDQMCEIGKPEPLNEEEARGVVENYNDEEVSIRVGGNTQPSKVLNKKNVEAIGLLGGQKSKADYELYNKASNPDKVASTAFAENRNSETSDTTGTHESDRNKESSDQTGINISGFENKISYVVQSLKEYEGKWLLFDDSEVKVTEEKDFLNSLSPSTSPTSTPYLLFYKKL
# Assay: Inhibitors of USP1/UAF1: Primary Screen; also: nearly all actives have a fitted effect of over 60% in size
# Conditions: recombinant USP1/UAF1, Ub-Rhodamine cleavage fluorescence; activity change, negative = inhibition: at 57.1 µM (top of the series)
# Summary of the method: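 USP1/UAF1 complex at 1 nM was preincubated with compound for 15 min at room temperature, then Ub-Rho substrate (150nM final) was added. Fluorescence (480/540 nm) was read kinetically, 6 reads every 60 seconds.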
# % is scaled to controls: 0 for no effect and ±100 for the full control effect; potency is read from the fitted curve at half-maximal effect.
SMILES,Potency,"activity change, negative = inhibition"
O=C1c2cccc3c(O)ccc(c23)C(=O)N1Cc1ccco1,active: 28.2 µM,
OCC[C@H]1C[C@@H](O)[C@H](O)[C@@]2(CCCc3ccccc3O2)O1,,inactive: 6.74%
O=C(NCc1cccc(F)c1)c1cccc2c1C(=O)c1ccc(N3CCC(Cc4ccccc4)CC3)cc1S2(=O)=O,active: 7.94 µM,
CCOc1ccc(NS(=O)(=O)c2c(C)nc3sc(CC)nn3c2=O)cc1,,inactive: 5.74%
C=CCC[C@H](Cc1ccc(F)cc1)C(=O)OC[C@@H](Cc1c[nH]c2ccccc12)NC(=O)[C@@H](CC=C)CC(=O)NCCO,,inactive: 1.53%
CCOC(=O)[C@@H]1[C@H]2COc3cc(OC)ccc3[C@@H]2N2C(=O)N(c3ccc(Br)cc3)C(=O)[C@]12C,,inactive: -25.8%
CCCCCC(=O)N1C[C@@H](O)[C@H](n2cc(COC(=O)c3ccccc3)nn2)C[C@@H]1c1ccc(C)cc1,,inactive: -10.7%
C=CCC[C@@H](Cc1ccc(F)cc1)C(=O)OC[C@@H](Cc1c[nH]c2ccccc12)NC(=O)[C@H](CC=C)CC(=O)N(CCO)Cc1ccccc1,,inactive: -32.7%
C[C@@H]1COC(=O)[C@@H](CC(=O)OC(C)(C)C)C/C=C\C[C@@H](CC(=O)NCCO)C(=O)N1,,inactive: -28.2%
C=CC[C@@H](CC(=O)N(CCO)Cc1ccccc1)C(=O)N[C@@H](COC(=O)[C@@H](CC=C)Cc1ccc(F)cc1)Cc1ccccc1,,inactive: -29.6%
CN(C[C@H](Cc1ccccc1)N(C[C@@H](Cc1cccc2ccccc12)N(CCc1ccccc1)N=O)N=O)N=O,,inactive: -28.9%
CC1CCCN(c2nc3ccccc3nc2C(C#N)S(=O)(=O)c2ccccc2)C1 (configuration not stated),,inactive: 205%
COc1ccc(/C=C2/CCc3ccccc3C2=O)cc1CN1CCOCC1,,inactive: -5.72%
Cc1cccc(/C=C/c2onc(C)c2S(=O)(=O)N2CCC(C(=O)N3CCC(C)CC3)CC2)c1,,inactive: -11.5%
C=CC[C@H](CC(=O)OC(C)(C)C)C(=O)OC[C@@H]1CCCN1C(=O)[C@H](CC=C)CC(=O)N[C@H](CO)Cc1ccccc1,,inactive: -26.7%
CCN(CC)c1ccc2c(Cl)c(Br)c(=O)oc2c1,,inactive: 74%
COc1ccc(-c2cc(C)no2)cc1S(=O)(=O)NCc1ccc(OC(C)C)cc1,,inactive: -8.06%
C=C(C)C(=O)Nc1cccc(C2=NOC3(C2)C[C@H](C(N)=O)N(C(=O)c2ccccc2)C3)c1 (some centres not stated),,inactive: 55.6%
CCOc1ccc(/C=C(\C#N)c2nc(-c3cc4ccccc4oc3=O)cs2)c(OCC)c1,,inactive: 73.1%
O=C(C[C@@H]1C/C=C/CC[C@@H](Cc2ccc(F)cc2)C(=O)OC[C@H](Cc2ccccc2)NC1=O)N[C@H](CO)Cc1ccccc1,,inactive: -14.6%
CCOc1ccc(NC(=O)C(NC(=O)C2CCC(C)CC2)C(C)C)cc1 (configuration not stated),,inactive: -15%

SMILES,Potency,"activity change, negative = inhibition"
C[C@@H]1CN([C@@H](C)CO)C(=O)CCCn2nncc2CO[C@H]1CN(C)S(=O)(=O)c1ccc(-n2cccn2)cc1,,inactive: 2.71%
COc1ccc(N2CCN(C(=O)c3ccc(CS(=O)(=O)c4ccc(Br)cc4)o3)CC2)cc1,,inactive: -15.3%
Cc1cc2nc3c(=O)n(CCc4ccccc4)c(=O)[nH]c3nc2cc1N,active: 17.8 µM,
COC(=O)N1N=C(c2ccccc2)CC1(O)C(F)(F)F (configuration not stated),,inactive: -24.8%
O=C1C=C(N(CCO)Cc2ccccc2)c2ccccc2C1=O,active: 3.55 µM,
OCC[C@H]1C[C@@H](O)[C@H](O)[C@@]2(CCCO2)O1,,inactive: -0.945%
CCC(Oc1ccccc1)C(=O)Nc1nnc(S(=O)(=O)N2CCCC2)s1 (configuration not stated),,inactive: 6.22%
CC(=Nc1ccc(O)cc1)c1sc2ccccc2c1O,,inactive: 113%
Cc1ccc(N2CC(C(=O)NCCS(=O)(=O)N3CCN(c4ccc(F)cc4)CC3)CC2=O)cc1 (configuration not stated),,inactive: -29.2%
CC(=O)Oc1cccc2c1C(=O)c1c(OC(C)=O)cc(C(=O)O)cc1C2=O,,inactive: 11%
COc1ccc(Cl)cc1S(=O)(=O)Nc1ccc2c(c1)n(C)c(=O)n2C,,inactive: -23.4%
C[C@@H]1CN(S(=O)(=O)C(C)(C)C)[C@@H](CCO)/C1=C\c1ccccc1,,inactive: -20.9%
CCOc1ccc(N(CC(=O)NCc2ccc(C)cc2)S(=O)(=O)c2c(C)[nH]c(=O)[nH]c2=O)cc1,,inactive: 4.21%
COc1ccccc1NC(=O)N(C)C[C@H]1OCc2cn(nn2)CCCC(=O)N([C@@H](C)CO)C[C@@H]1C,,inactive: -9.3%
Cc1noc(C)c1NC(=O)Nc1cccc2c1O[C@H](CN(C)C(=O)Nc1ccc3c(c1)OCO3)[C@@H](C)CN([C@H](C)CO)C2=O,,inactive: -12.5%
CC(C)(C)OC(=O)C[C@H]1C/C=C\C[C@@H](CC(=O)N[C@H](CO)Cc2ccccc2)C(=O)NC[C@@H](c2ccccc2)OC1=O,,inactive: -14%
CCOC(=O)N1CCC(Nc2c(NCCN3CCN(c4ccccc4F)CC3)c(=O)c2=O)CC1,,inactive: -5.04%
CCN(CC)c1ccc(NC(=O)CCS(=O)(=O)c2cccc3nsnc23)c(C)c1,,inactive: -13.2%
CCc1ccc(S(=O)(=O)/N=C2\C=C(Nc3ccc(O)cc3)C(=O)c3ccccc32)cc1,active: 10 µM,
Cc1cccc(NC(c2cccc(Cl)c2)c2ccc3cccnc3c2O)n1 (configuration not stated),,inactive: 43.2%
OC[C@H]1OC(O)[C@@H](O)[C@@H](O)[C@@H]1O (some centres not stated),,inactive: -17.5%
